# Data taken from the supplement of paper PMC11417369.
# ± gives the standard deviation of the averaged measurements. Some of the results follow.
# System: PfAP2-LT AP2 domain (GST-tagged)
# Assay: gcPBM binding intensity (ln(normalized median fluorescence intensity)); higher = stronger DNA binding
# In short: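 Binding intensity is the highest Masliner-normalised natural-log median intensity over replicate spots in either probe orientation. To obtain it, GST-tagged P. falciparum DNA-binding domains made in E. coli were incubated for 1 h on an Agilent 4 × 180k array of primer-extended double-stranded 36-bp intergenic genomic probes plus negative controls. Detection used Alexa488 anti-GST antibody with scanning at 488 nm.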
row,Sequence,gcPBM binding intensity (ln)
1,GTAACTTTATTATACTGTACTATTATATAAGCACAC [XGTACX_site2859],9.09 ± 0.3
2,AGTTGTTACGAACATACACACGAACATAGACACGGA [CACACA_site8102],9.24 ± 0.39
3,AAAAAAAAATATATAAACACACATATTTATATACAC [GTGCAC_negctrl_site545],8.94 ± 0.38
4,TTATTTAAATAATATGTACACACATTTAAAAAATTA [CACACA_site8912],8.48 ± 0.46
5,ATGAGTGTAATAATATGTACATAACCTACATAATTT [XGTACX_site852],8.94 ± 0.45
6,CACGCACAGATATATACACACTTTTATTTAAATAAC [CACACA_site6852],9.01 ± 0.4
7,GGATGCACACAAAAGGGTACATAAGAAAAAAACAGG [XGTACX_site8570],9.21 ± 0.57
8,AAAAATAAAATGGACACACACGTTCAAATTTAGATT [CACACA_site5186],9.19 ± 0.35
9,TTCACTAATAAATACGCACACATATACAGATATATA [CACACA_site4887],9.04 ± 0.27
10,AAATATATATATAGTTGTACATATATCGTATATATT [XGTACX_site7867],8.94 ± 0.29
11,ATTCTACACAGACATACACACATATATATATATATA [CACACA_site5826],9.835 ± 0.078
12,AAAAAAAATTATTATGAACACACATTTATTATATTC [CACACA_site8443],8.66 ± 0.46
13,TAATATGATCTTAATAGTACTTTATTAATAATAACC [XGTACX_site1953],8.45 ± 0.44
14,TATATATGTTTATGTAGTACTATATATCCCTTTCTT [XGTACX_site7049],8.93 ± 0.57
15,TATTGATTATTTGAATGTACTTATTATATTAAATAT [XGTACX_site1304],8.48 ± 0.61
16,GCACACATATAATAATGTACATATATATATTTAAAA [XGTACX_site4561],9.13 ± 0.45
17,ACACGCACATATATATAAATATATATATATATAAAT [CACACA_negctrl_site1781],9.6 ± 0.28
18,AATAAAAATATTTTTACATGCAAATGTTATATATTT [TGCATGCA_site1056],8.61 ± 0.46
19,TTTAAGCAAAAACACACACACATATATATATATATA [CACACA_site349],10.1 ± 0.16
20,TATAAATATATATACACACACATATATATTATATAT [CACACA_site596],9.27 ± 0.21
21,AAAAAATGATAATATACACACTTATGGGAGAGCGCA [CACACA_site5398],9.03 ± 0.42
22,ATTATGTTTCTTTTTTTTTTTAAAGGATGTCTTTTT [CACACA_negctrl_site974],8.62 ± 0.56

row,Sequence,gcPBM binding intensity (ln)
1,AATATTAAACAAAATAAATATATAAAAAATAAATAA [GTGCAC_negctrl_site93],8.62 ± 0.45
2,AAGTTATATTTGTGTACACATAATTTTATACTAATA [CACACA_site5553],8.83 ± 0.38
3,TATTTAATACGGACTCATAAATCTTAATAAAAAAAA [CACACA_negctrl_site434],8.44 ± 0.3
4,TGATAATAAGCATACACACACACACTAGAAAAAAAA [CACACA_site4558],10.1 ± 0.38
5,TGTTCTTTATTTTATTGTACTTTTAAAATTCCTTTA [XGTACX_site8058],8.63 ± 0.56
6,TTATTTATAAACATATGTACTAATACATGATTAACA [XGTACX_site7645],8.47 ± 0.45
7,GACATATATATAAAATGTACATATATATTTACATAT [XGTACX_site7822],8.91 ± 0.45
8,TATAAAAAAAACGAAAAAAAAAAAAAAAATACAGGA [TGCATGCA_negctrl_site585],8.76 ± 0.58
9,AAAAAAAAAAGACATGCATACGCTAATTTTTAGTTG [TGCATGCA_site300],8.54 ± 0.49
10,TATTATAATAAGAAGTGTACGTGTTTTTATAAATAA [XGTACX_site575],8.54 ± 0.39
11,GTTCCATGAGTATATACATGCATATATCTAGTTTAT [TGCATGCA_site388],9.05 ± 0.44
12,CATTTTTACAACGTTGCACACTTCAAAAGGTTTACA [CACACA_site2760],8.93 ± 0.38
13,TGTTTATACAATATTTGTACATATATTTTTATTTTT [XGTACX_site4104],8.85 ± 0.42
14,TTTTAAATAAAAAAATTAAATTAAAATATATAAAAA [XGTACX_negctrl_site490],7.97 ± 0.48
15,TATAAAAAAAAAAAAAGTACTTAAATATAAATAAAT [XGTACX_site5052],8.62 ± 0.47
16,GATACTCTCTTTTAATGTACAAAATTTTAAAAATTA [XGTACX_site1781],8.27 ± 0.44
17,AATTTATGTTTTAAAAGTACTTTTCTAATTTATAAA [XGTACX_site1593],8.56 ± 0.61
18,TATGTACAGACATATACACACCTCTATAATCTATAT [CACACA_site6482],9.03 ± 0.42
19,CTAAAGTAAATTTAAGCACACACAACGAATTTTTAT [CACACA_site8599],9.16 ± 0.24
20,AATGATATATTATAAACACACAAAGATGAATATATA [CACACA_site2818],9.01 ± 0.45
21,AATTAAAAAAAATACACACACACATACCCATATATA [CACACA_site5767],9.85 ± 0.28
22,TACCCTCGTATATATATACACACTAAAATACAGACA [CACACA_site4154],8.97 ± 0.3
